According to PubChem BioAssay (NCATS):
The inconclusive results got no clear call from the source; some entries with a clear call stand among them for comparison. No potency is given beside an inconclusive call; the fits are too rough. Active and inactive are the calls of the source. The call rests on the fitted dose curve; in most records, active means well fitted cell-killing curve with a large enough effect; inconclusive means small, poorly fitted or top-dose-only effect, or effect the other way; inactive means no such curve, though single readings can be large or run the other way.

Assay: Quantitative High-Throughput drug screen in 47 multiple myeloma cell lines against the NCATS MIPE library collection: Karpas620_DSMZ cell viability assay (AID 1918959); further: nearly all actives have a fitted effect of over 30% in size
Conditions: Karpas620 myeloma viability, CellTiter-Glo ATP luminescence, 48 h; series mostly up to 45.8 µM; viability (% of DMSO): at the top concentration
Text: PI: Beverly A. Mock Ph.D.
Laboratory of Cancer Biology and Genetics,
Center for Cancer Research, National Cancer Institute,
National Institute of Health, Bethesda, Maryland
Drug resistance and disease progression are common in multiple myeloma (MM) patients, underscoring the need for new therapeutic combinations. […] We hypothesized that effective combinations would reduce MYC expression and enhance p16 activity. […] These preclinical data identify potentially useful drug combinations for evaluation in drug-resistant MM and reveal potential mechanisms of combined drug sensitivity.
Described herein is the primary MIPE qHTS used to cherrypick compounds. Validated compounds were then further tested for potential synergistic activiy.
[1] Peat TJ, Gaikwad SM, Dubois W, Gyabaah-Kessie N, Zhang S, Gorjifard S, Phyo Z, Andres M, Hughitt VK, Simpson RM, Miller MA, Girvin AT, Taylor A, Williams D, D'Antonio N, Zhang Y, Rajagopalan A, Flietner E, Wilson K, Zhang X, Shinn P, Klumpp-Thomas C, McKnight C, Itkin Z, Chen L, Kazandijian D, Zhang J, Michalowski AM, Simmons JK, Keats J, Thomas CJ, Mock BA. Drug combinations identified by high-throughput screening promote cell cycle transition and upregulate Smad pathways in myeloma. Cancer Lett. 2023 Aug 1;568:216284. doi: 10.1016/j.canlet.2023.216284. Epub 2023 Jun 24. PMID: 37356470; PMCID: PMC10408729.
SEQUENCE No. (e.g., 1, 2, 3, etc.); […] (e.g., Cells, Incubation, Reagent, etc.); VALUE and DESCRIPTION.
1; Cells; 5 uL; white, solid bottom 1536-well Greiner assay plate.
2; Compounds; 23 nL; Kalypsis pin tool (Wako USA) equipped with a 1536-well pin head to transfer to the assay plates.
3; Incubation; 48 hours; 37C incubation.
4; Reagent;5uL; CellTiter Glo (Promega).
5; Detector; 425V; Luminescence; Viewlux PerkinElmer.
NOTES (numbers refer to Sequence numbers above)
1. The cell-based screening methods employed in this study were like those previously published. Briefly, the corresponding myeloma cell lines were screened in 1,536-well plates with 500 cells, 5-uL per well for inhibition of cell viability (assessed by measuring ATP levels with CellTiterGlo).
2. NCATS MIPE 4.0 library of approved and investigational drugs were added using the Kalypsis pin tool. Wells treated with DMSO only for 100% viability and media only wells for 0% viability were used as controls.
3. The assay plates were covered and incubated for 48 hours in a 37C, 5% CO2 incubator with controlled humidity.
4. After 48 hours, CellTilter-GloTM luminescent substrate mix (Promega) reagent was added to the assay plate and plates we incubated for 5 min at room temperature.
5. Signal was measured as median relative luminescence units on a ViewLux (PerkinElmer) multiplate reader.
[1] Heske CM, Davis MI, Baumgart JT, Wilson K, Gormally MV, Chen L, Zhang X, Ceribelli M, Duveau DY, Guha R, Ferrer M, Arnaldez FI, Ji J, Tran HL, Zhang Y, Mendoza A, Helman LJ, Thomas CJ. Matrix Screen Identifies Synergistic Combination of PARP Inhibitors and Nicotinamide Phosphoribosyltransferase (NAMPT) Inhibitors in Ewing Sarcoma. Clin Cancer Res. 2017 Dec 1;23(23):7301-7311. doi: 10.1158/1078-0432.CCR-17-1121. Epub 2017 Sep 12. PMID: 28899971; PMCID: PMC6636827.
Potency means the concentration at half of the fitted maximal effect; tags describe the fitted curve by direction and shape.

SMILES | viability (% of DMSO) | Potency
c1ccc(-c2nn3c(c2-c2ccnc4cc(OCCN5CCOCC5)ccc24)CCC3)nc1 | inactive: 102% | 
COc1nc(-c2ccc3c(c2)OCO3)n(-c2ccc(NC(=O)CSc3ccccc3)cc2)n1 | inactive: 135% | 
NC(=O)c1cccc(-c2cc(Nc3ccc(OC(F)(F)F)cc3)ncn2)c1 |  | active: 26.4 µM
CCCCC[C@H](O)C=C[C@H]1[C@H](O)CC(=O)[C@H]1CC=CCCCC(=O)O | inactive: 132% | 
C[C@@]1(C(=O)Nc2ccc(F)nc2)CCCN1c1nc(Nc2cc(C3CC3)[nH]n2)c2cccn2n1 |  | inconclusive [cytotoxic, full curve]
COc1ccc(-c2oc3c(CC=C(C)C)c(OC4O[C@H](CO)[C@@H](O)[C@H](O)[C@@H]4O)cc(O)c3c(=O)c2OC2O[C@@H](C)[C@H](O)[C@@H](O)[C@@H]2O)cc1 (stereo not given in full) |  | active: 11.8 µM
CC1(C)C(=O)N(CCN2CCC(C(=O)c3ccc(F)cc3)CC2)c2ccccc21 |  | active: 3.72 µM
CC1CC2C3CCC4=CC(=O)C=C[C@]4(C)[C@@]3(F)[C@@H](O)C[C@]2(C)[C@@]1(O)C(=O)CO (stereo not given in full) |  | inconclusive [cytotoxic, full curve, poor fit]
CC[C@H](CO)Nc1nc(NCc2ccccc2)c2ncn(C(C)C)c2n1 | inactive: 117% | 
CC=C(C)C(=O)O[C@H]1C(C)=C[C@]23C(=O)[C@@H](C=C(CO)[C@@H](O)[C@]12O)[C@H]1[C@@H](C[C@H]3C)C1(C)C |  | inconclusive [cytotoxic, single point]
Cc1ccc(-n2[nH]c(C)c(N=Nc3cccc(-c4cccc(C(=O)O)c4)c3O)c2=O)cc1C |  | inconclusive
COCCNCCCn1c(C(=O)CF)c(-c2ccc(C)cc2)c2c(N)ncnc21 |  | inconclusive [cytotoxic, partial curve, poor fit]
CCCN[C@H]1CCc2nc(N)sc2C1 |  | inconclusive [cytotoxic, single point]
Cc1ccc(N(CC2=NCCN2)c2cccc(O)c2)cc1 |  | inconclusive [cytotoxic, partial curve]
CC(C)NCC(O)c1ccc(NS(C)(=O)=O)cc1 (stereo not given) |  | inconclusive [cytotoxic, full curve, poor fit]
OC(c1cc(C(F)(F)F)nc2c(C(F)(F)F)cccc12)C1CCCCN1 (stereo not given) |  | inconclusive [cytotoxic, single point]
Cc1ccc([C@@H]2O[C@H](CO)[C@@H](O)[C@H](O)[C@@H]2O)cc1Cc1ccc(-c2ccc(F)cc2)s1 |  | inconclusive [cytotoxic, single point]
CC1(C)CCC(CN2CCN(c3ccc(C(=O)NS(=O)(=O)c4ccc(NCC5CCOCC5)c([N+](=O)[O-])c4)c(Oc4cnc5[nH]ccc5c4)c3)CC2)=C(c2ccc(Cl)cc2)C1 |  | active: 0.332 µM
CN(C)C1CCN(C(=O)c2ccc(NC(=O)Nc3nc(N4CCOCC4)nc(N4CCOCC4)n3)cc2)CC1 |  | inconclusive [cytotoxic, full curve]
CC(=O)OCC(=O)[C@@]12N=C(C)O[C@H]1C[C@H]1[C@@H]3CCC4=CC(=O)C=C[C@]4(C)[C@@H]3[C@@H](O)C[C@@]12C | inactive: 106% | 

SMILES | viability (% of DMSO) | Potency
Cc1nc2n(c(=O)c1CCN1CCC(c3noc4cc(F)ccc34)CC1)CCCC2 | inactive: 90.6% | 
Cc1cccc(Nc2ccncc2S(=O)(=O)NC(=O)NC(C)C)c1 | inactive: 104% | 
Nc1nnc(-c2cccc(Cl)c2Cl)c(N)n1 |  | inconclusive [cytotoxic, single point]
Clc1cc(Cl)cc(CNc2ncncc2-c2ccc3c(c2)OCO3)c1 |  | inconclusive [cytotoxic, full curve]
O=c1cc(O)c(Cl)c[nH]1 |  | inconclusive [cytotoxic, full curve, poor fit]
CCOc1cc(CC(=O)N[C@@H](CC(C)C)c2ccccc2N2CCCCC2)ccc1C(=O)O |  | inconclusive [cytotoxic, single point]
c1ccc2c(-c3cnn4cc(-c5ccc(N6CCNCC6)cc5)cnc34)ccnc2c1 |  | inconclusive [rising, full curve, poor fit]
NCCc1cnc[nH]1 |  | active: 0.0148 µM
Cc1cc(C2CCCCC2)n(O)c(=O)c1 |  | active: 8.33 µM
CN(C)c1ccc(C2Nc3ccc4ccccc4c3C3=C2C(=O)CC(C)(C)C3)cc1Br (stereo not given) |  | inconclusive [cytotoxic, partial curve, poor fit]
CS(=O)(=O)c1ccc(C2=C(c3ccccc3)C(=O)OC2)cc1 | inactive: 109% | 
COCCCOc1cc(C[C@@H](C[C@H](N)[C@@H](O)C[C@H](C(=O)NCC(C)(C)C(N)=O)C(C)C)C(C)C)ccc1OC | inactive: 108% | 
CC(C)(C)c1[nH]cnc1C=c1[nH]c(=O)c(=Cc2ccccc2)[nH]c1=O |  | inconclusive [cytotoxic, single point]
CNC(=O)c1cc(COc2nnc(Nc3ccc(Cl)cc3)c3ccoc23)ccn1 |  | inconclusive [cytotoxic, partial curve, poor fit]
CN1CCC(=C2c3ccccc3CC(=O)c3sccc32)CC1 |  | inconclusive [cytotoxic, single point]
CN(C)Cc1cccc(N=C(c2ccccc2)c2c(O)[nH]c3cc(C(=O)N(C)C)ccc23)c1 |  | inconclusive [cytotoxic, partial curve]
Cc1ccn(-c2ccc(-c3ncco3)cc2)c(=O)c1-c1ccc2nc(N)ncc2c1 |  | inconclusive [cytotoxic, partial curve, poor fit]
CCC(C)n1ncn(-c2ccc(N3CCN(c4ccc(OC[C@H]5CO[C@](Cn6cncn6)(c6ccc(Cl)cc6Cl)O5)cc4)CC3)cc2)c1=O (stereo not given in full) | inactive: 107% | 
CC(C)(C#N)c1cc(Cn2cncn2)cc(C(C)(C)C#N)c1 | inactive: 107% | 
CCOC(=O)C1=C(N)Oc2ccc(Br)cc2C1C(C#N)C(=O)OCC (stereo not given) |  | active: 18.7 µM
